According to paper PMC9911399, “Two distinct binding modes provide the RNA-binding protein RbFox with extraordinary sequence specificity”:
Substitutions are numbered along the chain they refer to; changes in the protein carry UniProt numbers. This is one part of the list.

B1: AAAUAGC (DNA:RNA)
RNA: GGGAGACCGGAAUUCAGAUUGUCCAAAUAGCUUAAAUCCCGUCGUAGCCACCA
DNA 1: CAATCTGAATTCCGGTCTCCC
DNA 2: TGGTGGCTACGACGGGATT
B2: GCGGCGC (DNA:RNA)
RNA: B1 RNA with A25G, A26C, A27G, U28G, A29C
DNA 1: CAATCTGAATTCCGGTCTCCC
DNA 2: TGGTGGCTACGACGGGATT
B3: UCUCCGA (DNA:RNA)
RNA: B1 RNA with A25U, A26C, A27U, U28C, A29C, C31A
DNA 1: CAATCTGAATTCCGGTCTCCC
DNA 2: TGGTGGCTACGACGGGATT
B4: GGUUAGG (DNA:RNA)
RNA: B1 RNA with A25G, A26G, A27U, C31G
DNA 1: CAATCTGAATTCCGGTCTCCC
DNA 2: TGGTGGCTACGACGGGATT
B5: CACUAUG (DNA:RNA)
RNA: B1 RNA with A25C, A27C, G30U, C31G
DNA 1: CAATCTGAATTCCGGTCTCCC
DNA 2: TGGTGGCTACGACGGGATT
B6: UAUAUAU (DNA:RNA)
RNA: B1 RNA with A25U, A27U, U28A, A29U, G30A, C31U
DNA 1: CAATCTGAATTCCGGTCTCCC
DNA 2: TGGTGGCTACGACGGGATT
B7: CUUGUAA (DNA:RNA)
RNA: GGGAGACCGGAAUUCAGAUUGUCCCUUGUAAUUAAAUCCCGUCGUAGCCACCA
DNA 1: CAATCTGAATTCCGGTCTCCC
DNA 2: TGGTGGCTACGACGGGATT
B8: CGGCGCU (DNA:RNA)
RNA: B7 RNA with U26G, U27G, G28C, U29G, A30C, A31U
DNA 1: CAATCTGAATTCCGGTCTCCC
DNA 2: TGGTGGCTACGACGGGATT
B9: CAGUAAU (DNA:RNA)
RNA: B1 RNA with A25C, A27G, G30A, C31U
DNA 1: CAATCTGAATTCCGGTCTCCC
DNA 2: TGGTGGCTACGACGGGATT
B10: UUAGCUG (DNA:RNA)
RNA: B7 RNA with C25U, U27A, U29C, A30U, A31G
DNA 1: CAATCTGAATTCCGGTCTCCC
DNA 2: TGGTGGCTACGACGGGATT
B11: ACCCGGG (DNA:RNA)
RNA: B1 RNA with A26C, A27C, U28C, A29G, C31G
DNA 1: CAATCTGAATTCCGGTCTCCC
DNA 2: TGGTGGCTACGACGGGATT
B12: CCACUGC (DNA:RNA)
RNA: B1 RNA with A25C, A26C, U28C, A29U
DNA 1: CAATCTGAATTCCGGTCTCCC
DNA 2: TGGTGGCTACGACGGGATT
B13: GCAUGUG (DNA:RNA)
RNA: B1 RNA with A25G, A26C, A29G, G30U, C31G
DNA 1: CAATCTGAATTCCGGTCTCCC
DNA 2: TGGTGGCTACGACGGGATT
B14: UUAGCUA (DNA:RNA)
RNA: B7 RNA with C25U, U27A, U29C, A30U
DNA 1: CAATCTGAATTCCGGTCTCCC
DNA 2: TGGTGGCTACGACGGGATT
B15: ACUCGGG (DNA:RNA)
RNA: B1 RNA with A26C, A27U, U28C, A29G, C31G
DNA 1: CAATCTGAATTCCGGTCTCCC
DNA 2: TGGTGGCTACGACGGGATT
B16: UUAAAUG (DNA:RNA)
RNA: B1 RNA with A25U, A26U, U28A, G30U, C31G
DNA 1: CAATCTGAATTCCGGTCTCCC
DNA 2: TGGTGGCTACGACGGGATT
B17: AGUUAUC (DNA:RNA)
RNA: B1 RNA with A26G, A27U, G30U
DNA 1: CAATCTGAATTCCGGTCTCCC
DNA 2: TGGTGGCTACGACGGGATT
B18: GUUACUG (DNA:RNA)
RNA: B7 RNA with C25G, G28A, U29C, A30U, A31G
DNA 1: CAATCTGAATTCCGGTCTCCC
DNA 2: TGGTGGCTACGACGGGATT
B19: GUGUCAU (DNA:RNA)
RNA: B7 RNA with C25G, U27G, G28U, U29C, A31U
DNA 1: CAATCTGAATTCCGGTCTCCC
DNA 2: TGGTGGCTACGACGGGATT
B20: UUAAUCC (DNA:RNA)
RNA: B1 RNA with A25U, A26U, U28A, A29U, G30C
DNA 1: CAATCTGAATTCCGGTCTCCC
DNA 2: TGGTGGCTACGACGGGATT

target: T1, RBFOX1 RRM (Homo sapiens, UniProt Q9NWB1 109-208); experiment: EMSA; HiTS-Eq, 1 nM pool, 10 min; buffer printed only for the single-RNA assays: 10 mM Tris pH 7.5, 150 mM NaCl, 3.4 mM EDTA, 0.001% NP-40, 30 C; details: tags: His6 N-terminal (pET28a); label: 5' 32P
T1 sequence: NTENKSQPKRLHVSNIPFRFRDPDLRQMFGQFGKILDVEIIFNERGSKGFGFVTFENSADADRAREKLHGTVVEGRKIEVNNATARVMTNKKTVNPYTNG
Summary of the method: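 These values rest on relative association constants, computed from read-count changes of each RNA species versus the control reaction and normalised to the cognate motif. Reads came from free RNA recovered by 8% native PAGE after purified RbFox RRM (wild type or mutant) at increasing concentrations was equilibrated for 10 min in 50 µL with 1 nM of a 5′-radiolabelled pool with 7 randomized nucleotides and DNA-annealed flanks.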

Binder | binding signal
B1 | 0.00215 KA relative to UGCAUGU
B2 | 0.0236 KA relative to UGCAUGU
B3 | 0.0139 KA relative to UGCAUGU
B4 | 0.00756 KA relative to UGCAUGU
B5 | 0.00229 KA relative to UGCAUGU
B6 | 0.00311 KA relative to UGCAUGU
B7 | 0.00804 KA relative to UGCAUGU
B8 | 0.0147 KA relative to UGCAUGU
B9 | 0.00269 KA relative to UGCAUGU
B10 | 0.0158 KA relative to UGCAUGU
B11 | 0.00858 KA relative to UGCAUGU
B12 | 0.00554 KA relative to UGCAUGU
B13 | 0.8 KA relative to UGCAUGU
B14 | 0.00954 KA relative to UGCAUGU
B15 | 0.00646 KA relative to UGCAUGU
B16 | 0.0123 KA relative to UGCAUGU
B17 | 0.00773 KA relative to UGCAUGU
B18 | 0.0187 KA relative to UGCAUGU
B19 | 0.0129 KA relative to UGCAUGU
B20 | 0.00387 KA relative to UGCAUGU
